Experimental findings from PMC4336329 (PLoS ONE, 2015) are described below.

Molecules are shown by their SMILES. Hit rate of the full screen: of about 310,000 compounds, about 2,200 (0.71%) showed an effect of 50% or more. Effects have a minus sign here. The list shows a part of the results.

The target of the assay is human ether-à-go-go-related gene (hERG) potassium channel (human, UniProt Q12809). Nature of the assay: primary screen, population patch clamp on CHO cells stably expressing hERG.
Chain of human ether-à-go-go-related gene (hERG) potassium channel (Q12809 whole entry, looked up): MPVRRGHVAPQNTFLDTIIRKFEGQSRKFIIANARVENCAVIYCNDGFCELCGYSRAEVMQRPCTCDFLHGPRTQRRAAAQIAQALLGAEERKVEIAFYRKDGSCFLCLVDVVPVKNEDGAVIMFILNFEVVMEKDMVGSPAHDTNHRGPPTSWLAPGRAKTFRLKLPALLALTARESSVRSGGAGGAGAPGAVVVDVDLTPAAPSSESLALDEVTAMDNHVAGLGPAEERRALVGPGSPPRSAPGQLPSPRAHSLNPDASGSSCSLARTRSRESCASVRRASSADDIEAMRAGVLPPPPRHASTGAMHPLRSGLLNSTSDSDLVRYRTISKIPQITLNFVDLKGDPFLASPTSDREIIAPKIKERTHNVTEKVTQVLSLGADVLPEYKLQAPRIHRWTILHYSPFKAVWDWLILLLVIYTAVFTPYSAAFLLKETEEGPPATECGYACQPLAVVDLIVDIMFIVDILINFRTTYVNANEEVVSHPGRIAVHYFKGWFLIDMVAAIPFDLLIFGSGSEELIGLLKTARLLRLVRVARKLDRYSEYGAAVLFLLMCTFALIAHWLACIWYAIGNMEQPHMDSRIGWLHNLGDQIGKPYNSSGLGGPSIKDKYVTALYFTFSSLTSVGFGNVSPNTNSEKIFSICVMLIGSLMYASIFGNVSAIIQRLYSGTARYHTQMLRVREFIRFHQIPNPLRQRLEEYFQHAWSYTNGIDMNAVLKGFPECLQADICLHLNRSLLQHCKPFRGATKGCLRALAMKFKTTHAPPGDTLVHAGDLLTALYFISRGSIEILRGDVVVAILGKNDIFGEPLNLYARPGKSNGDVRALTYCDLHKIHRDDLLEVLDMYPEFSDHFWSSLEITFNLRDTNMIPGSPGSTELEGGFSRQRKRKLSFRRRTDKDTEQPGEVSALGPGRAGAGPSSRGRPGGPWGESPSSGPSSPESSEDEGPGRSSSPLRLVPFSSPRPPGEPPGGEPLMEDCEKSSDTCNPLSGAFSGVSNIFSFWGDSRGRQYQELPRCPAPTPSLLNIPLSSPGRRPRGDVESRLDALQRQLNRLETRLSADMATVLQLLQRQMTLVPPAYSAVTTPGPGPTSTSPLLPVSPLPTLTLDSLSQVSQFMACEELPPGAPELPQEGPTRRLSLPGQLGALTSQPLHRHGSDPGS
Consider `S=C(Nc1ccccc1Cl)N(CCCN1CCOCC1)Cc1ccccn1`, for which the “hERG current change (%, negative = inhibition) at 1uM” value is on record as 8.05%.
The result for `O=C(CN(CC1CCCO1)C(=O)CNS(=O)(=O)c1ccc(Cl)cc1)NC1CCCC1` (centres unmarked) reads 11.7%; that for `O=C(CSc1ncnc2c1sc1ccccc12)Nc1ccc(Br)cc1`, -0.877%.
Consider `Cc1ccc(S(=O)(=O)NC2c3cccc4cccc(c34)C2Sc2nncn2C)cc1` (centres unmarked), for which the “hERG current change (%, negative = inhibition) at 1uM” value was found to be 20.8%.
For `COc1ccc(OC)c(NC(=O)C2CCN(C(=O)C3CC(=O)N(c4ccc(C)cc4)C3)CC2)c1` (centres unmarked) the value was 3.42%; for `Cc1ccc(-c2nnc(NC(=O)C3=COCCO3)o2)c(C)c1`, 11.8%; for `CNC(=S)NNC(=O)Cc1ccc(OC)cc1`, 11.1%.
The result for `COc1ccc(/C=N/NC(=O)CCc2c(C)n[nH]c2C)cc1O` reads -0.301%.
The result for `COC(=O)C(C#N)c1nc2ccccc2nc1N1CCCC1` (centres unmarked) reads 11%; that for `O=c1[nH]c2ccc(Cl)cc2c(-c2ccccc2)c1SC(=S)N1CCCCC1`, 10.8%.
For `O=C(C1CCN(S(=O)(=O)c2ccccc2)CC1)N1CCC1`, the “hERG current change (%, negative = inhibition) at 1uM” value was 13%.
The result for `C=CCNC(=O)c1csc(-c2ccccc2)n1` reads -8.65%; that for `O=C(C1=COCCO1)N1CCN(S(=O)(=O)c2cccc(F)c2)CC1`, 15.5%.
Consider `Oc1ccccc1N=N/C(=N/Nc1ccccc1O)c1ccccc1`, for which the “hERG current change (%, negative = inhibition) at 1uM” value came to 1.42%.
With `CC(=O)CCC1CC(c2ccc(Cl)cc2)=NO1` (centres unmarked), the “hERG current change (%, negative = inhibition) at 1uM” value turned out to be 8.98%.
As for `CC1=C(C(=O)Nc2ccccc2)C(c2ccccn2)n2ncnc2N1` (centres unmarked), the “hERG current change (%, negative = inhibition) at 1uM” value was found to be 10.3%.
For `COc1ccc(OC)c(CNCCc2ccc(OC)c(OC)c2)c1.O=C(O)C(=O)O`, the “hERG current change (%, negative = inhibition) at 1uM” value was determined as 13.8%.
For `COc1ccc(CCN2C(=O)NC(NC(=O)CC(C)C)(C(F)(F)F)C2=O)cc1OC` (centres unmarked) the value was 12.9%.
For `CN(C)S(=O)(=O)n1cc(/C=C(\NC(=O)c2ccccc2F)C(=O)N2CCOCC2)c2ccccc21` the value was 14.7%.
With `COc1ccc(-n2nc(C(=O)NCC(=O)NC3CCCCC3)c3ccccc3c2=O)cc1`, the “hERG current change (%, negative = inhibition) at 1uM” value is reported as 18.8%.
`Cc1nc2ccc(NS(=O)(=O)c3ccccc3F)cc2s1`: the “hERG current change (%, negative = inhibition) at 1uM” value stood at 8.37%.
For the compound `CC(C)CCNC(=O)c1onc(CSc2ccc(F)cc2)c1C(=O)NCCC(C)C`, the “hERG current change (%, negative = inhibition) at 1uM” value is on record as 14.7%.
For `COC(=O)CNC(=O)CNC(=O)c1nn(-c2ccc(OC)c(OC)c2)c(=O)c2ccccc12` the value was 12.5%; for `Cc1ccccc1-n1cc(CNC(=O)CCc2nnc(CCc3ccccc3)o2)cn1`, 0.7%.
For the compound `Cc1ccc(Nc2nc(C(=O)N3CCC(C(=O)NC(C)C)CC3)cs2)cc1`, the “hERG current change (%, negative = inhibition) at 1uM” value was 11.3%.
For the compound `Cc1ccc(S(=O)(=O)NC(Cc2c[nH]c3ccccc23)C(=O)O)cc1` (centres unmarked), the “hERG current change (%, negative = inhibition) at 1uM” value was -2.2%.
With `O=C(COC(=O)CNC(=O)c1cccc([N+](=O)[O-])c1)Nc1nc2ccccc2s1`, the “hERG current change (%, negative = inhibition) at 1uM” value was 1.22%.
For `CCc1ccc(C(=O)Nc2nnn(CC)n2)cc1` the value was -6.71%.
`COc1ccc(C2SCC(=O)N2CC23CC4CC(CC(C4)C2)C3)cc1` (centres unmarked): the “hERG current change (%, negative = inhibition) at 1uM” value stood at 1.73%.
The result for `Cc1ccc(CN2CCCN(Cc3c(F)cccc3Cl)S2(=O)=O)cc1` reads 17.1%.
With `Cc1c(Cl)cccc1NC(=S)N1CCc2ccccc2C1`, the “hERG current change (%, negative = inhibition) at 1uM” value was determined as 12%.
Regarding `O=C(CSc1nnc(CCCO)n1-c1ccccc1)Nc1nccs1`, the “hERG current change (%, negative = inhibition) at 1uM” value stood at 2.18%.
The result for `Nc1cc(=O)[nH]c(SCC(=O)NNC(=O)c2ccccc2)n1` reads 16.6%; that for `Cc1c(Cl)ccc(S(=O)(=O)NCCN2CCOCC2)c1Cl`, 3.34%.
For the compound `COc1ccc(CC(=O)OCC(=O)Nc2cccc(Br)c2)cc1`, the “hERG current change (%, negative = inhibition) at 1uM” value is recorded as 4.98%.
On to `COC(=O)c1cc(-c2ccc(OC)c(OC)c2)n[nH]1`, for which the “hERG current change (%, negative = inhibition) at 1uM” value is reported as 13.3%.
For `Cc1cc(C)cc(C(=O)N2CCC(C(N)=O)CC2)c1` the value was 10.2%.
`Cc1cccc(NC(=O)N2CCN(Cc3ccc4c(c3)OCO4)CC2)c1C`: the “hERG current change (%, negative = inhibition) at 1uM” value turned out to be 10%.
Consider `O=C(Nc1nccs1)c1ccc(-c2cccc([N+](=O)[O-])c2)o1`, for which the “hERG current change (%, negative = inhibition) at 1uM” value was 14.8%.
For `O=C(NCc1cccnc1)c1cc(-c2cccs2)on1`, the “hERG current change (%, negative = inhibition) at 1uM” value is reported as -28.7%.
The result for `CC(C)[C@H](NC(=O)Cc1ccccc1)C(=O)OCc1cc(=O)n2c(n1)sc1ccccc12` reads 5.98%.
The result for `COc1ccccc1NS(=O)(=O)c1ccc(C(=O)Nc2ncccc2O)cc1` reads 8.31%; that for `CCN1CCN(C2CCCCC2NS(=O)(=O)c2ccccc2)CC1` (centres unmarked), 9.17%.
In the case of `Cc1ccc(NC(=O)Cn2c(=O)oc3ccccc32)c(C)c1`, the “hERG current change (%, negative = inhibition) at 1uM” value is on record as 16.5%.
